Binding signal data for 14 molecules are collected here from article PMC12136788.

T1: UNK ZnF1-3 (human, UniProt Q9C0B0 31-174)
T1 sequence: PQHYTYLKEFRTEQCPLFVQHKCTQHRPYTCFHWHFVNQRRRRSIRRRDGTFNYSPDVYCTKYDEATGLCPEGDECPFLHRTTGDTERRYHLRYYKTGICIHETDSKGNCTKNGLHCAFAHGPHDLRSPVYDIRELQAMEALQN

B1: chr2:47387409:47387410:-_ENSG00000143933_ENST00000272298|hu_hu|motif|central (ssRNA)
RNA: GGGAGUUCUACAGUCCGACGAUCAUACAACUUGGAAUGGAUUUUGAGGCAAAUUGUGCCAUAAGCAGAUUUUAAGUGGCGGAACAAAGUUUAAAAAGCAAGUAACAAUAAAAGAAAAUGUUUCUGGUACAGGACCAGCAGUACCAACAGAGGAUUGAGCAUCA
B2: chr1:59925254:59925255:+_ENSMUSG00000067336_ENSMUST00000087435|mus_hu|motif|central (ssRNA)
RNA: GGGAGUUCUACAGUCCGACGAUCAUCUUGUUCUGAACAUGGAUUGCUGUUGUUGUUAUUGGAAUUAGUUCGGCCACCUUCGGGUGGCCGUUCCCUCCUGUCCACAAGACGAUCCAGAACACCUUCAUCAUGGCCAGCUUGUUGCAACAGAGGAUUGAGCAUCA
B3: chr4:106720802:106720803:+_ENSMUSG00000061887_ENSMUST00000030367|mus_mus|FALSE|FALSE (ssRNA)
RNA: GGGAGUUCUACAGUCCGACGAUCAGUUUUGUCCUUCAUGUUUUACGGAAUAAAAGUUUGGCCUUUUUAUUGCAUGAAACUAAAAUUGGGGAAGGUGGGGGAGUGAAUGGGAGGGUGGAGGGAGCAGGAGAUGCCCUCCCCCAGCAACAGAGGAUUGAGCAUCA
B4: chr13:45008927:45008928:-_ENSG00000102804_ENST00000261489|hu_hu|FALSE|FALSE (ssRNA)
RNA: GGGAGUUCUACAGUCCGACGAUCAGGACUGGCCAGUGUCUUCAGCAGAUUGUUCUCCUGCUCCAGCUGGGAAUUUUUCUCUAUUAGUUCUUUGAUUUGCUCUUUGAGGACCUCCACUUCUUCUCUGACCGCAUACAUCAAAUGCAACAGAGGAUUGAGCAUCA
B5: chr6:40197388:40197389:+_ENSMUSG00000057716_ENSMUST00000061740|mus_mus|mus_mus_mus_hu_False|18_78 (ssRNA)
RNA: GGGAGUUCUACAGUCCGACGAUCGAGACACUGGGGUGGAUUUAUUCCACCUCUGUUUGCUAGCCUCCCACUAAGACUGUUAUUUUGGGAUUCAUGGCCUUGAAUAUCAAGAGGGAAGGGACGAGAAUGGAAAGAGUCAAGAGUCAACAGAGGAUUGAGCAUCA
B6: chrX:7396663:7396664:+_ENSMUSG00000031153_ENSMUST00000132456|mus_mus|FALSE|FALSE (ssRNA)
RNA: GGGAGUUCUACAGUCCGACGAUCGCAAGGGCAUACAUGGAUGGAUCAGUGGGCAGAGGGACAGAUGGCAGACUGAUGGGCUAACCUGGGAAGUUGAUUGGAGGGUAAAAGAGGUGAACACAAAAGGGCGGUAGAUGACUGGAACAACAGAGGAUUGAGCAUCA
B7: chr1:2330915:2330916:+_ENSG00000157916_ENST00000443438|hu_mus|FALSE|FALSE (ssRNA)
RNA: GGGAGUUCUACAGUCCGACGAUCAGGGCCGUCAUCUGAGUCUUCCAUCAAGGAAGGAUCCACUUUGGGAGAAAGGAACGCAAUGAAAAGGUUUAGGUGGUAAAUUCCCAAGGCGUAGGUCACAAUGUACCAACCUUGUAACAGCAACAGAGGAUUGAGCAUCA
B8: 108935682_108940753_566_CDS_ENSG00000138796_ENST00000309522|human|control|control (ssRNA)
RNA: GGGAGUUCUACAGUCCGACGAUCGGCAUUAGCUAUGCUUGUAAUCUGCAAGGAGGAAGUGUUGCUGGCAAAGAUUGUAUGUUCAGCAGCAAACUUGUCCAGCCUUUUGAAGAGCUCGUUUUUCACCUUCAGAUUCUCCACGAUCAACAGAGGAUUGAGCAUCA
B9: chr6:41757443:41757444:+_ENSG00000214736_ENST00000398881|hu_mus|hu_hu_hu_mus_False|68_68 (ssRNA)
RNA: GGGAGUUCUACAGUCCGACGAUCGAACCGUGCAGAGGCAACAUCUCAGCCGACACUGGGGGAUGGGGGAACAAAAGGGGGGGGUUCAGGCAAGGAGAGGGAGUCAACUUCAGCUGCCACUCAGGUAGGAUCUUGUGGUCACAGCAACAGAGGAUUGAGCAUCA
B10: chr15:83907949:83907950:-_ENSMUSG00000018865_ENSMUST00000082365|mus_hu|FALSE|FALSE (ssRNA)
RNA: GGGAGUUCUACAGUCCGACGAUCCUGUUAUUAUAAAUAAAAGUCAAACGUGAGGUCACACUUUCCCAUCUUCUGUUUAUACACCAAGUCAAACUUCUCAUUCAUGGAGACGGUGAAGAUGUCCUUCCACAGCCCAACUCUUCCCAACAGAGGAUUGAGCAUCA
B11: chr11:77340908:77340909:-_ENSG00000074201_ENST00000525064|hu_hu|hu_hu_hu_mus_True|18_38 (ssRNA)
RNA: GGGAGUUCUACAGUCCGACGAUCGUUUGGAUCCCUGGACACCGCAUGUAAACUAAUGGUGGGGUAUUCCAGUGAGAAUCCUAAUCCCGAACCAUCUAACCAAGACAGGCGGCUCUCAGCGAUGUAAAGCGUGCCGGUGCCGAGCAACAGAGGAUUGAGCAUCA
B12: chr3:149684364:149684365:-_ENSG00000070087_ENST00000239940|hu_hu|FALSE|FALSE (ssRNA)
RNA: GGGAGUUCUACAGUCCGACGAUCUGAGUAUGCCUUCUUAUUCAAUCCGCCUCCAUGGACCCCUUCUUUUCCCAUUACAAAGACCAAGACUCUACCAGCUCUGCCGACAGCCACAUUGUAUGUUGGCUCCCCACCUUGACUCUUCAACAGAGGAUUGAGCAUCA
B13: chr5:128440902:128440903:+_ENSG00000066583_ENST00000173527|hu_mus|hu_hu_hu_mus_True|8_8 (ssRNA)
RNA: GGGAGUUCUACAGUCCGACGAUCUUGAACGGUGCUGCCAAGUCCUUUGGGGUAUUGUUCCGUUAUGAUAACUGGAAUCCCUAAGAUCCGAGCUCCUUGCAACAGUCUCUGUCCCACACUAAUGAUGUCCCCAAAAUAUUUGAUCAACAGAGGAUUGAGCAUCA
B14: 33852131_33852251_8664_3pUTR_ENSMUSG00000042197_ENSMUST00000044455|mouse|control|control (ssRNA)
RNA: GGGAGUUCUACAGUCCGACGAUCCCGUCUCAAAACAAACAAACAAAACAAAACAAAAAAAGGUAUGGGCCACCACACCUAGCUAGCAAUCAAAUCUUUUUUCAAACAAGACUUAGAAUGCCAGCACUUGAAGCAGCAGGACUCCAACAGAGGAUUGAGCAUCA

This is one part of the list.

The assay deals with T1, UNK ZnF1-3. The assay is described as follows: nsRBNS (natural sequence RNA bind-n-seq); RBNS binding buffer (assumed for nsRBNS): 25 mM Tris pH 7.5, 150 mM KCl, 3 mM MgCl2, 0.01% Triton X-100, 500 ug/ml BSA, 20 U/ml SUPERase-In, 4 C; UNK is unkempt and MSI1 is Musashi-1; names of the RNAs are library labels; protein concentration not given here; high values mean tight binding.
For the molecule B1, the binding signal came to 1.89 enrichment R.

As for B2, the binding signal was 0.509 enrichment R.

Regarding B3, the binding signal turned out to be 1.11 enrichment R.

For B4, the binding signal was determined as 1.11 enrichment R.

Turning to B5, the binding signal is 1.3 enrichment R.

On to B6, for which the binding signal came out at 2.4 enrichment R.

In turn, B7 had a binding signal of 1.14 enrichment R.

For the molecule B8, the binding signal came out at 0.728 enrichment R.

For B9, the binding signal came to 2.85 enrichment R.

Take B10: the binding signal was 1 enrichment R.

For the molecule B11, the binding signal amounted to 0.956 enrichment R.

The molecule B12 showed a binding signal of 0.77 enrichment R.

B13 yielded a binding signal of 0.786 enrichment R.

As to B14, the binding signal stood at 2.11 enrichment R.
